Source: paper PMC5515408
Some of the results follow. At the low end of the ranking the order means little.

System: MYC (p64) + MAX (p21), in MYC:MAX
Test: protein-binding microarray (anti-MAX antibody)
Conditions: PBM: 15 mM Tris-HCl pH 7.5, 100 mM KCl, 0.075% NP40, 7.5 mM beta-mercaptoethanol, 375 ng/ul BSA, 8 ng/ul poly(dA-dT):(dA-dT), 550 ng complex, 60 min, room …; high values mean tight binding; double strand, one strand shown; sequences stand for … in CCGGC…TTAATAGCTAAGATTACTATATCGACG

Sequence | binding signal (log2 normalized fluorescence)
TGATCCTACGTA | 0.0765
TGATCTAACGTA | 0.0389
TGAGCCTTAGTA | -0.121
TGATTGCAGGTA | 0.00225
TGAAAACGGGTA | 0.128
TGACATCGTGTA | 0.401
TGAGAATCGGTA | -0.108
TGACACGCTCTA | 0.665
TGATGATGTGTA | 0.057
TGATAAGCCGTA | -0.185
TGAGTGGCGGTA | 0.0916
TGATGCGCCGTA | 0.153
TGAGTCCTCGTA | 0.208
TGACCCGGGGTC | 0.0341
TGAGATCCAGTA | -0.0919
TGATTATTAGTA | -0.0626
TGATCCAATGTA | -0.0218
TGATCGAGCGTA | -0.116
TGAATAAGTGTA | 0.0824
TGATGAACTGTA | 0.136
TGAGTGACAGTA | 0.00932
TGATGTGCAGTA | 0.236
TGACCAGACGTA | 0.135
TGATTTGCTGTA | -0.0458
TGAGCAGTCGTA | 0.0523

Sequence | binding signal (log2 normalized fluorescence)
TGGCACTTGGTA | 0.157
TGATTTGTGGTA | -0.0148
TGCCATGTGGGA | 0.899
TGATTCAGCGTA | -0.127
TGACAGGATGTA | 0.0981
CGCCACGTGGTC | 0.884
TGAATTGGTGTA | 0.091
TGACACGTGGAA | 0.698
TGATGGCCCGTA | -0.0184
TGACCCATGGTA | 0.407
TGATAAAAAGTA | -0.00091
TGAGTTGTTGTA | -0.128
TGATTCACGGTA | 0.00748
TGAAAATGCGTA | 0.248
TGAAACGTCGTA | 0.0788
TGAGGAACCGTA | -0.0339
CGACGCGAGGTA | 0.462
TCATACGTAGTA | 0.166
TCTCAGGTTTTT | -0.0664
TGATTGACGGTA | -0.0162
TGAGGGCTGGTA | 0.0137
TGACACAGTGTA | 0.232
TGATGTGGCGTA | 0.151
TGACCATCCGTA | 0.173
TGATGGTTCGTA | 0.159

Sequence | binding signal (log2 normalized fluorescence)
TGAAGACGGGTA | 0.0235
TACTACGTGGTA | 0.34
TGATCGCAAGTA | 0.136
TGAGCTGATGTA | 0.0743
TGAATATACGTA | 0.0278
CGCAACGTGGTA | 0.645
TGAGGACATGTA | 0.259
TGAGTTTTCGTA | 0.0154
TGATAGCCAGTA | -0.254
TGACATCCAGTA | 0.16
TGAAGCCTCGTA | 0.23
TGACAAACAGTA | 0.151
TGAACATCTGTA | 0.392
TGAGGTAAGGTA | -0.105
TGATCAGTTGTA | -0.0212
TAATACGGGGTA | 0.309
TGAAACCGGGTA | 0.097
TGAATGTGAGTA | 0.216
TGAAGACACGTA | 0.229
TGACGCGCAGTA | 0.215
TGACAGGAGGCA | 0.194
TCAGTCGTGGTA | 0.323
TCACAAGTGGTA | 0.366
TGCCACGTCGCA | 0.356
TGAACCGGTGTA | 0.172

Sequence | binding signal (log2 normalized fluorescence)
TGACATTACGTA | 0.132
TGAATACCGGTA | -0.0714
TGAACACTTGTA | 0.267
TGATGGTAGGTA | 0.284
TGATCATCTGTA | 0.173
TGAGTACATGTA | 0.33
TGACGTTATGTA | 0.0295
TGAGCTAGCGTA | -0.239
TGAACGGTGGTA | 0.161
TGAACCCGCGTA | 0.279
TGATCACACGTA | 0.407
TGAGGATTTGTA | -0.272
TGACAGTCTGTA | 0.0688
TGATAGGTCGTA | -0.161
TGAGTTGAAGTA | -0.273
TGATATGGTGTA | 0.218
CGACACGTTGTA | 0.656
TGAATACCCGTA | 0.0211
TGACGTTACGTA | 0.123
TGACTACAGGTA | 0.0271
TGATCTTGGGTA | -0.213
TGACACGTCTAA | 0.197
TGATGGCTCGTA | 0.103
TGATATGTCGTA | 0.0678
TGATTCAGGGTA | -0.163

Sequence | binding signal (log2 normalized fluorescence)
TGAGTTTGAGTA | -0.31
TGATATTACGTA | 0.053
TGACAGTGGGTA | -0.0618
TGACCGTATGTA | 0.249
TGATACTTGGTT | 0.0375
TGAGTTTCGGTA | -0.062
AGACACGTAGTA | 0.616
TGAAAAATCGTA | -0.0731
TGAGCCCCTGTA | -0.043
TGACGAAGAGTA | -0.165
TGATTCCCCGTA | 0.0379
TGACGTATAGTA | -0.012
TGAAATCCCGTA | 0.0189
TGAGGTTAGGTA | 0.0168
TGAAGTACTGTA | 0.0078
TGACTATGGGTA | -0.031
TGATACTTCGTA | -0.111
TGATTTGAGGTA | -0.112
TGAAGCATCGTA | 0.192
TGACCCCTGGTA | 0.17
TGAGAGGGAGTA | -0.0996
TGACACTGAGTA | -0.109
TGAGCTCTAGTA | -0.139
TGAAGCCGTGTA | 0.27
TGAATATTCGTA | -0.137

Sequence | binding signal (log2 normalized fluorescence)
TGAACTCTGGTA | -0.0337
TGAGTAAGCGTA | -0.0992
TGAGACGCTGTA | -0.0254
TGATACACGGTA | 0.262
TGACACGCGGTC | 1.03
TGAAAATTTGTA | -0.238
TGAACAGCTGTA | 0.249
TGAACCAACGTA | 0.302
TGAAACGTGGAA | 0.519
TGAAAATGAGTA | 0.215
TGATACTTGGTA | 0.0376
TGACACTTGCTA | 0.538
GCGTGCTAGTGA | 0.774
TGAATTGATGTA | 0.0418
TGATTAATTGTA | -0.217
TGATTATATGTA | -0.0492
TGATCAAGCGTA | 0.0726
TGAGATAAAGTA | -0.28
TGACACGTTAGA | 0.482
TGAAAGCCCGTA | 0.0543
TGAGGCCGAGTA | -0.0913
TGAGCGACGGTA | -0.0101
TGACGTTAGGTA | 0.206
TGAAGACAAGTA | 0.102
TGAGAAACCGTA | 0.0763

Sequence | binding signal (log2 normalized fluorescence)
TGACACGTGCAG | 0.746
TGCACCGTGGTA | 0.506
TGACCTTATGTA | 0.341
TGACACGGGATA | 0.287
TGACTGCAGGTA | -0.00807
TGATGCGCGGTA | 0.198
TGAATATAAGTA | -0.206
TGAAACCAAGTA | 0.0737
TTTGGTAAGTAG | -0.178
TGACACGTGTCG | 0.947
TGACGCAATGTA | 0.279
TGACACCTGGTG | 0.409
TGAACGATGGTA | -0.0668
TGACACGTGCGG | 0.707
TGATGAATGGTA | 0.279
TGATGTCACGTA | 0.201
TGACACGAACTA | 0.476
TGAAATTCTGTA | -0.159
TGAACCTTGGTA | -0.012
TGATGCCGGGTA | -0.0843
TGATACACTGTA | 0.202
TGAAAGATTGTA | -0.0655
TGAAAATCTGTA | -0.1
TGACTACCTGTA | 0.224
TGAAGGGTTGTA | 0.00834

Sequence | binding signal (log2 normalized fluorescence)
TGATACCTGCTA | 0.035
TGATATATAGTA | -0.0329
TGACGCTGCGTA | 0.0697
TGATTATCCGTA | -0.136
TGACTCATTGTA | 0.249
TGAAGAACCGTA | 0.0987
AGACACGCGATA | 0.437
TGACTAGGCGTA | 0.00532
TGATGCTGAGTA | -0.0723
TGAGACACAGTA | 0.116
TGATAGAATGTA | 0.0693
TGAAAAGTTGTA | -0.0404
TGATCATAGGTA | 0.0899
ACACACGTGGTA | 0.804
TGATGTCCCGTA | 0.0937
TGATACCTAGTA | -0.122
TGACTGTGGGTA | -0.0687
TGACCCGTAGTA | 0.177
TGAGCCACAGTA | 0.145
TGAATATTTGTA | -0.164
TGATGTGGAGTA | 0.148
TGACCTTCTGTA | 0.139
TGACTACTTGTA | 0.0872
TGATCGGCCGTA | -0.0788
TAACACGAGGTA | 0.776

Sequence | binding signal (log2 normalized fluorescence)
TGAGAGACCGTA | 0.0127
TGACACGCACTA | 0.532
TGATACCTCGTA | 0.199
TGAACCGATGTA | 0.0618
TGAACGCCTGTA | 0.351
TGAGCACCTGTA | 0.293
TGACTCAGGGTA | 0.123
TGATCCGCGGTA | 0.108
TGACCGCCGGTA | -0.0102
TGACACGTGGTG | 0.534
TGAATCACCGTA | 0.124
TGAGGACTTGTA | -0.00169
TGAGTTTGGGTA | -0.286
TGACAGGTGGCA | 0.531
TGACTTAGCGTA | -0.0142
TGATGTCATGTA | 0.23
TGACGCCTAGTA | -0.0648
TGAATTACAGTA | 0.0443
TGAAGTTCCGTA | 0.0203
TGACACGCGGAA | 0.709
TGACTGTCAGTA | 0.183
TGATGTCGAGTA | 0.132
TGACAGCCGGTA | 0.0702
TGATGTCTGGTA | 0.207
TGAAGAAGCGTA | 0.18

Sequence | binding signal (log2 normalized fluorescence)
TGACACTATGTA | 0.213
TGATCCGAAGTA | -0.239
TGAGCTATCGTA | -0.142
TGATAGTAAGTA | -0.14
TGATTTACTGTA | -0.069
TGACAAAGGGTA | 0.108
TGAAACGCGGTA | 0.467
TGACACGAGGCA | 0.549
TGAAATTCAGTA | -0.0395
TGACTCTTAGTA | -0.0432
TTACACGGGGTA | 0.512
TGAACAGATGTA | 0.206
CACACCGTATAT | 0.472
TGAAAAAGAGTA | -0.065
TGAGGAGGAGTA | -0.0112
TGAACCCCTGTA | 0.199
TGATGTTAGGTA | 0.122
ATGCACGTGGTA | 0.877
GGACACATGGTA | 0.734
TGACAACTCGTA | 0.0809
TGAATAAGAGTA | -0.102
TGGCCCGTGATA | 0.0203
TGACCTATAGTA | 0.0626
TGACGTAGAGTA | -0.111
TGAGACACGGTA | 0.339

Sequence | binding signal (log2 normalized fluorescence)
TGAGGGCACGTA | 0.196
TGAATATAGGTA | -0.0789
TTAAACCGGGTT | 0.0388
TGATGCTACGTA | 0.0122
ATAGTATACAAT | 0.141
TGACGCGACGTA | 0.222
TGACAGTCAGTA | 0.207
TGACTTAGAGTA | 0.00649
TGAGTCTGAGTA | -0.223
TGAAACGACGTA | 0.186
TGACCGTGAGTA | 0.028
TGATAAGAGGTA | 0.00604
TGAACGGGCGTA | -0.108
TGATAACATGTA | 0.446
TGACTGCCCGTA | 0.0477
TGAATGTCGGTA | 0.302
TGATACAAAGTA | -0.024
TGACGAACCGTA | 0.159
TGATTACCCGTA | 0.0842
TGAACTACAGTA | 0.0813
TCCGACGTGGTA | 0.53
TGAGGGTTGGTA | 0.0373
TGCCACGTAGGA | 0.344
TGATCGCGAGTA | 0.326
TTACACGTGGTC | 0.679
